Data: the supplement of paper PMC8728848
Some of the results follow.

What was measured:
Experiment in all cases: glycan array binding signal (z-score within array); higher = stronger binding
Details in all cases: glycan notation: IUPAC condensed, linker removed
[1] = biological target: Neu5Ac(a2-3)Gal(b1-4)GlcNAc(b1-3)[Neu5Ac(a2-3)Gal(b1-4)GlcNAc(b1-6)]GalNAc
Summary of the method: (§1)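 The binding signal is a Z-score computed within each array. Data were drawn from 3228 arrays in the Consortium for Functional Glycomics database, restricted to those with a known protein sequence. Scores were averaged over arrays of the same protein sequence at different concentrations or buffers, and over linkers, and negative values can be taken as non-binding.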

[2] = biological target: Neu5Ac(a2-3)Gal(b1-4)GlcNAc(b1-6)GalNAc
Summary of the method: as §1

[3] = biological target: Neu5Ac(a2-3)Gal(b1-4)GlcNAc(b1-6)[Gal(b1-3)]GalNAc
Summary of the method: as §1

[4] = biological target: Neu5Ac(a2-3)Gal(b1-4)GlcNAc(b1-6)[Neu5Ac(a2-3)Gal(b1-3)]GalNAc
Summary of the method: as §1

[5] = biological target: Neu5Ac(a2-3)Gal(b1-4)GlcNAc6S
Summary of the method: as §1

[6] = biological target: Neu5Ac(a2-3)Gal(b1-4)[Fuc(a1-3)]GlcNAc
Summary of the method: as §1

[7] = biological target: Neu5Ac(a2-3)Gal(b1-4)[Fuc(a1-3)]GlcNAc(b1-2)Man
Summary of the method: as §1

[8] = biological target: Neu5Ac(a2-3)Gal(b1-4)[Fuc(a1-3)]GlcNAc(b1-3)Gal
Summary of the method: as §1

[9] = biological target: Neu5Ac(a2-3)Gal(b1-4)[Fuc(a1-3)]GlcNAc(b1-3)Gal(b1-4)GlcNAc
Summary of the method: as §1

[10] = biological target: Neu5Ac(a2-3)Gal(b1-4)[Fuc(a1-3)]GlcNAc(b1-3)Gal(b1-4)[Fuc(a1-3)]GlcNAc(b1-3)Gal(b1-4)[Fuc(a1-3)]GlcNAc
Summary of the method: as §1

[11] = biological target: Neu5Ac(a2-3)Gal(b1-4)[Fuc(a1-3)]GlcNAc(b1-3)GalNAc
Summary of the method: as §1

[12] = biological target: Neu5Ac(a2-3)Gal(b1-4)[Fuc(a1-3)]GlcNAc(b1-6)[Gal(b1-3)]GalNAc
Summary of the method: as §1

[13] = biological target: Neu5Ac(a2-3)Gal(b1-4)[Fuc(a1-3)]GlcNAc(b1-6)[Neu5Ac(a2-3)Gal(b1-3)]GalNAc
Summary of the method: as §1

[14] = biological target: Neu5Ac(a2-3)Gal(b1-4)[Fuc(a1-3)]GlcNAc6S
Summary of the method: as §1

[15] = biological target: Neu5Ac(a2-3)Gal6S(b1-4)GlcNAc
Summary of the method: as §1

[16] = biological target: Neu5Ac(a2-3)Gal6S(b1-4)[Fuc(a1-3)]GlcNAc
Summary of the method: as §1

Neu5Ac(a2-3)GalNAc = biological target: Neu5Ac(a2-3)GalNAc
Summary of the method: as §1

[17] = biological target: Neu5Ac(a2-3)GalNAc(b1-4)GlcNAc
Summary of the method: as §1

[18] = biological target: Neu5Ac(a2-3)[GalNAc(b1-4)]Gal(b1-4)Glc
Summary of the method: as §1

[19] = biological target: Neu5Ac(a2-3)[GalNAc(b1-4)]Gal(b1-4)GlcNAc
Summary of the method: as §1

[20] = biological target: Neu5Ac(a2-3)[GalNAc(b1-4)]Gal(b1-4)GlcNAc(b1-3)GalNAc
Summary of the method: as §1

[21] = biological target: Neu5Ac(a2-3)[Neu5Ac(a2-6)]GalNAc
Summary of the method: as §1

Neu5Ac(a2-6)Gal = biological target: Neu5Ac(a2-6)Gal
Summary of the method: as §1

[22] = biological target: Neu5Ac(a2-6)Gal(b1-3)GlcNAc(b1-3)[Gal(b1-4)GlcNAc(b1-6)]Gal(b1-4)Glc
Summary of the method: as §1

Neu5Ac(a2-6)Gal(b1-4)Glc = biological target: Neu5Ac(a2-6)Gal(b1-4)Glc
Summary of the method: as §1

[23] = biological target: Neu5Ac(a2-6)Gal(b1-4)GlcNAc
Summary of the method: as §1

[24] = biological target: Neu5Ac(a2-6)Gal(b1-4)GlcNAc(b1-2)Man
Summary of the method: as §1

[25] = biological target: Neu5Ac(a2-6)Gal(b1-4)GlcNAc(b1-2)Man(a1-3)Man(b1-4)GlcNAc(b1-4)GlcNAc
Summary of the method: as §1

[26] = biological target: Neu5Ac(a2-6)Gal(b1-4)GlcNAc(b1-2)Man(a1-3)[Gal(b1-4)GlcNAc(b1-2)Man(a1-6)]Man(b1-4)GlcNAc(b1-4)GlcNAc
Summary of the method: as §1

[27] = biological target: Neu5Ac(a2-6)Gal(b1-4)GlcNAc(b1-2)Man(a1-3)[GlcNAc(b1-2)Man(a1-6)]Man(b1-4)GlcNAc(b1-4)GlcNAc
Summary of the method: as §1

[28] = biological target: Neu5Ac(a2-6)Gal(b1-4)GlcNAc(b1-2)Man(a1-3)[GlcNAc(b1-4)][Neu5Ac(a2-6)Gal(b1-4)GlcNAc(b1-2)Man(a1-6)]Man(b1-4)GlcNAc(b1-4)GlcNAc
Summary of the method: as §1

B1: MGL1 (Mus musculus), P49300 (protein)
chain: MIYENLQNSRIEEKTQEPGKAPSQSFLWRILSWTHLLLFSLGLSLLLLVVVSVIGSQNSQLRRDLGTLRATLDNTTSKIKAEFQSLDSRADSFEKGISSLKVDVEDHRQELQAGRDLSQKVTSLESTVEKREQALKTDLSDLTDHVQQLRKDLKALTCQLANLKNNGSEVACCPLHWTEHEGSCYWFSESEKSWPEADKYCRLENSHLVVVNSLEEQNFLQNRLANVVSWIGLTDQNGPWRWVDGTDFEKGFKNWAPLQPDNWFGHGLGGGEDCAHITTGGPWNDDVCQRTFRWICEMKLAKES
- glycan array binding signal (z-score) [1]: -0.652
- glycan array binding signal (z-score) [2]: -0.057
- glycan array binding signal (z-score) [3]: -0.174
- glycan array binding signal (z-score) [4]: -0.418
- glycan array binding signal (z-score) [5]: 0.083
- glycan array binding signal (z-score) [6]: -0.048
- glycan array binding signal (z-score) [7]: -0.66
- glycan array binding signal (z-score) [8]: 0.179
- glycan array binding signal (z-score) [9]: -0.1
- glycan array binding signal (z-score) [10]: 0.048
- glycan array binding signal (z-score) [11]: 0.42
- glycan array binding signal (z-score) [12]: -0.246
- glycan array binding signal (z-score) [13]: -0.389
- glycan array binding signal (z-score) [14]: -0.064
- glycan array binding signal (z-score) [15]: 0.985
- glycan array binding signal (z-score) [16]: -0.382
- glycan array binding signal (z-score) (Neu5Ac(a2-3)GalNAc): -0.228
- glycan array binding signal (z-score) [17]: -0.306
- glycan array binding signal (z-score) [18]: 0.064
- glycan array binding signal (z-score) [19]: -0.489
- glycan array binding signal (z-score) [20]: -0.453
- glycan array binding signal (z-score) [21]: -0.765
- glycan array binding signal (z-score) (Neu5Ac(a2-6)Gal): 1.09
- glycan array binding signal (z-score) [22]: 0.811
- glycan array binding signal (z-score) (Neu5Ac(a2-6)Gal(b1-4)Glc): -0.436
- glycan array binding signal (z-score) [23]: -0.233
- glycan array binding signal (z-score) [24]: -0.595
- glycan array binding signal (z-score) [25]: 0.39
- glycan array binding signal (z-score) [26]: -0.799
- glycan array binding signal (z-score) [27]: -0.089
- glycan array binding signal (z-score) [28]: -0.48
